Laboratory results reported in PubChem BioAssay AID1645887 (National Center for Advancing Translational Sciences (NCATS), 2021).
Where “and” joins values, the source holds several entries; their conditions need not be identical. Equal values may be shown once. About 40 (0.2%) of roughly 16,000 compounds were called active. About 1% were inconclusive and are not listed. Calls come from the whole dose curve; as a rule, active = well fitted activation curve with a large enough effect; inconclusive = small, poorly fitted or top-dose-only effect, or another doubt; inactive = no such curve, though single readings can be large or run the other way. Some of the results follow.

biological target: Rap guanine nucleotide exchange factor 4 (Homo sapiens) (UniProt Q8WZA2); test: Validation qHTS for agonist of cAMP-regulated guanine nucleotide exchange factor 4 (EPAC2); settings: EPAC2 Rap1B BODIPY-GDP exchange, fluorescence; activation: hits give high values;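 note: exchange makes BODIPY-GDP fluorescence drop when released from Rap1B; series mostly up to about 150 µM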
UniProt Q8WZA2, sequence (Q8WZA2 whole entry, looked up): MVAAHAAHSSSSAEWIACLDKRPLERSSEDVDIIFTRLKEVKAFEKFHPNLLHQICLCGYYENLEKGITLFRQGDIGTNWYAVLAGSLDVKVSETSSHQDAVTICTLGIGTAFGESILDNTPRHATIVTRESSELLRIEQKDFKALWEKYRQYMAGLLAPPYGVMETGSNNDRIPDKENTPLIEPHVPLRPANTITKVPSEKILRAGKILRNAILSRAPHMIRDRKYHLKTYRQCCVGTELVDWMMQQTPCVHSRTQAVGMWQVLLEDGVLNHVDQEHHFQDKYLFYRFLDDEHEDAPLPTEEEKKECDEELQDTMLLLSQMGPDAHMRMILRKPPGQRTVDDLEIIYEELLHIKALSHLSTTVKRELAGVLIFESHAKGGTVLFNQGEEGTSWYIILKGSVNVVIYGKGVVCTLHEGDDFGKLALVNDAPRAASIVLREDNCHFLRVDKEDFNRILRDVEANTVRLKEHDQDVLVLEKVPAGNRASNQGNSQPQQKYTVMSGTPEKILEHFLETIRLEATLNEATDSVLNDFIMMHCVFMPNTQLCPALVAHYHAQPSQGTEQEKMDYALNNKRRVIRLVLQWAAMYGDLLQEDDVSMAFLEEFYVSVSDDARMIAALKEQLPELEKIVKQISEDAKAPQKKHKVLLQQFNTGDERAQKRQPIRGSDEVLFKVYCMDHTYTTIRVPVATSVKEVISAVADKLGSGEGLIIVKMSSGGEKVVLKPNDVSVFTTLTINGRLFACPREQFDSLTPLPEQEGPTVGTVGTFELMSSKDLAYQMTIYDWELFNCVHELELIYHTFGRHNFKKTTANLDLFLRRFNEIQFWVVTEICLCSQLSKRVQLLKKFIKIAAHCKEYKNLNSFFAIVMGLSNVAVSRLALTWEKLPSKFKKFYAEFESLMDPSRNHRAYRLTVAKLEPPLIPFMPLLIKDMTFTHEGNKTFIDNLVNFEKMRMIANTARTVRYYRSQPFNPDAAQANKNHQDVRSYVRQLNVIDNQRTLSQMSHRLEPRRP
Text: Principle Investigator: Xiaodong Cheng Ph.D.
The University of Texas Medical Branch, […], TX
In multi-cellular eukaryotic organisms, the effects of cAMP are transduced by two ubiquitously-expressed intracellular cAMP receptors, the classic protein kinase A/cAMP-dependent protein kinase (PKA/cAPK) and the more recently discovered exchange protein directly activated by cAMP/cAMP-regulated guanine nucleotide exchange factor (EPAC/cAMP-GEF). Both PKA and EPAC are ubiquitously expressed in all tissues, and an increase in intracellular cAMP levels will lead to the activation of both PKA and EPAC. Therefore, careful dissections of the individual role and relative contribution of EPAC and PKA within the overall cAMP signaling in various model systems are critical for further elucidating the mechanism of cAMP signaling. To date no EPAC-specific antagonists and agonist, as well as isoform-specific agonists have been reported, and developing EPAC-specific pharmacological probes to determine the physiological functions that EPAC play in the overall cAMP-mediated signaling remains a major challenge within the research field. Furthermore, identified regulators of EPAC may lead to new mechanism-based therapeutic strategies specifically targeting the EPAC / cAMP-signaling components as EPAC has been implicated to play important roles in major human pathological conditions such as diabetes, heart disease, and cancer.
This qHTS will be used to screen the Molecular Libraries Small Molecule Repository (MLSMR) as a concentration-titration series using the NCGC unique quantitative screening (qHTS) platform to find activators for EPAC1. In addition, this assay will also be used as a counterscreen for the EPAC2 qHTS. This fluorescent based assay is developed and validated for EPAC1 that measures exchange using EPAC effector Rap1 complex with BODIPY-GDP, a GDP analog with a tethered fluorophores. Activators are identified by monitoring the change in fluorescence signal as the exchanged free BODIPY-GDP has a reduced fluorescence compared to Rap1-bound BODIPY-GDP. Increase in signal (activation) is the desired outcome for the EPAC1 agonist while no activity in this assay is desired for the EPAC2 agonist counterscreen.
[1] de Rooij, J., Zwartkruis, F. J., Verheijen, M. H., Cool, R. H., Nijman, S. M., Wittinghofer, A., and Bos, J.L. (1998) Nature 396, 474-477.
Briefly, three uL of reagents (100 nM EPAC2, 250 nM RAP1B-BODIPY-GDP, 50 uM GDP) were dispensed into a 1536-well Greiner black solid-bottom medium binding assay plate. Controls and test compounds (23 nL) were transferred to the plate via a Kalypsys pin tool equipped with a 1536-pin array. The plates were centrifuged at 1,000 rpm for 15 seconds followed by 5 minute incubation at room temperature. The assay plates were read at 5 minute intervals for 30 minutes in the ViewLux plate reader using 480nm excitation and 540nm emission filters. The results were normalized to the agonist positive control of 6.5 mM cAMP.
% is set by controls: 0 for no effect and ±100 for the full control effect.

activation, inactive:
CC(=O)c1c(O)c(C)c(O)c2c1OC1=CC(=O)C(C(C)=O)C(=O)C12C (configuration not stated) -15.7%
COc1ccc(-c2nc3cnc(OC)nc3n(C3CC3)c2=O)cc1 -12.8%
H-RKDVY-OH -19.4%
O=c1cnc2cnc(N3CCNCC3)nc2n1C1CC1 -8.96%
C[C@]12CC[C@@H]3c4ccc(O)cc4CC[C@H]3[C@@H]1CCC2=O -11.6% and -10.8% and -12.6%
CCOC(=O)C1=C[C@]2(CC)CCCN3CCc4c(n1c1ccccc41)[C@@H]32 1.02% and -9.68% and -20.9%
Cc1ccc(S[C@@H](CCN2CC[C@H](O)CCC2=O)c2ccccc2)cc1 -17.7%
CC1=C2C(O)C(=O)OC3CC4C(C)(C)C(=O)C=C[C@]4(C)C(CC1)[C@@]23C (some centres not stated) 1.63%
COc1ccc(-c2nc3cnc(N(C)C)nc3n(Cc3cccs3)c2=O)cc1 -3.88%
CC(=O)c1cc2c(cc1O)OC(C)(C)C=C2 -19.1%
CC1CN(S(=O)(=O)c2cccc3cnccc23)CCN1 (configuration not stated) -27.9%
COc1ccc(CN2[C@@H](CC(=O)O)c3ccc(/C=C/C(=O)O)cc3S2(=O)=O)cc1 0.479%
CC(=O)OCC(=O)[C@@]1(O)CC[C@H]2[C@@H]3C[C@H](C)C4=CC(=O)C=C[C@]4(C)[C@H]3[C@@H](O)C[C@@]21C -15.1%
COc1ccc(C(=O)N2CCN(CC(=O)N3CCOCC3)CC2)cc1 -3.65%
Cc1ccccc1CN1[C@@H](CC2CCCCC2)COCCS1(=O)=O -34.6%
Cc1cc(C(=O)NCC2CCC3(CCN(Cc4cccc(F)c4F)CC3)O2)n(C)n1 (configuration not stated) -8.25%
CNc1ccnc(-c2c(C)noc2C)n1 -10.9%
COc1ccc(C2CC(=O)c3c(O)cc(O)cc3O2)cc1O (configuration not stated) -16.7%
Cc1noc(C)c1-c1nccc(NCc2cccs2)n1 -17.6%
CCCCC/C=C\C\C=C/C=C/C=C/[C@@H](SC[C@H](NC(=O)CC[C@H](N)C(=O)O)C(=O)NCC(=O)O)[C@@H](O)CCCC(=O)O 3.5%
CCOc1ccc(S(=O)(=O)O)c2cccnc12 -35.6%
CCCCCCCCCCCCCC[N+](C)(C)Cc1ccccc1 -7.52%
CC(=O)Nc1ccccc1-c1nc(CNC(=O)c2cccc(F)c2)c(C)o1 -2.86%
CCOC(OCC)P(=O)(O)CCCNCc1ccc(Cl)c(Cl)c1 -12.6% and -16.7%
Cc1cccc(CN2CCN(C(c3ccccc3)c3ccc(Cl)cc3)CC2)c1 (configuration not stated) -10.6% and -7.08%
Cc1cc(C)cc(C(=O)NCc2nc(-c3cccc(NC(=O)c4ccccn4)c3)oc2C)c1 -7.85%
Cn1cc(-c2nc3cncnc3n(CCN)c2=O)c2ccccc21 -24.6%
CC(C)=CCC/C(C)=C/COc1c2occc2cc2ccc(=O)oc12 2.48%
COc1cnc(NS(=O)(=O)c2ccc(N)cc2)nc1 -13.7% and -13.5%
CCCCNC(=O)O[C@@H]1C[C@@H]2CCN3C(=O)CCC[C@H]([C@H]1CC)[C@H]23 -12.6%
N#CC(C#N)=C(N)/C(C#N)=C/c1ccc2[nH]ccc2c1 -2.19% and -0.836%
O=C1C2C=CC=CC2=NC(=S)N1CCN1CCC(=C(c2ccc(F)cc2)c2ccc(F)cc2)CC1 (configuration not stated) -40.9%
Cc1ncsc1CCC(=O)N1CCCC(c2nc(-c3ccncc3)ncc2-c2ccccc2)C1 (configuration not stated) -5.71%
O=C(O)CCC(=O)Nc1ccc(S(=O)(=O)Nc2nccs2)cc1 6.21% and -5.26%
O=C(c1ccncc1)N1CCC2(CC1)CCN(c1ccncc1)CC2 7.86%
COc1ccc(C(=O)C[n+]2cccc(Br)c2)cc1 -13.8%
O=NN(CCCl)C(=O)NC1CCCCC1 -10.6%
O=C(O)Cc1cn(-c2ccccc2)nc1-c1ccc(Cl)cc1 -13%
COc1ccccc1O -1.02% and 18.3%
CC1CNCCN1S(=O)(=O)c1cccc2cnccc12 (configuration not stated) 3.54% and -3.18% and -30.1%
CCCC1([C@H](O)C/C=C/[C@H]2[C@H](O)CC(=O)[C@@H]2CCCCCCC(=O)OC)CCC1 -44.2%
CNCCC(Oc1ccccc1OC)c1ccccc1 (configuration not stated) -0.977% and -17.3%
C[C@@H]1[C@H](c2ccccc2)OCCS(=O)(=O)N1Cc1ccc(Cl)cc1 -19.2%
N#CCCn1c(=O)c(-c2ccc(F)cc2)nc2cnc(Oc3cccc(Cl)c3)nc21 -0.68%
Oc1cc(-c2nc3ccccc3s2)cc2c1OCCN(Cc1cccn1-c1nccs1)C2 -12%
Nc1ncnc2c1ncn2[C@@H]1O[C@H](COP(=O)(O)OP(=O)(O)CP(=O)(O)O)[C@@H](O)[C@H]1O 5.76%
CC1(C)S[C@@H]2[C@H](NC(=O)[C@H](NC(=O)N3CCN(S(C)(=O)=O)C3=O)c3ccccc3)C(=O)N2[C@H]1C(=O)O 2.38%
CN(C(=O)CO)c1c(I)c(C(=O)NCC(O)CO)c(I)c(C(=O)NCC(O)CO)c1I (configuration not stated) -5.67%
CN1CCN(c2ncnc3ccc(-c4ccc(C(=O)N(C)C)cc4)cc23)CC1 -8.61%
CC(=O)N(Cc1ccc2c(c1)OCO2)Cc1cc2ccc(C)cc2nc1-c1cccc(C)c1 0.779%
CN1CCN(c2nc(-c3ccccc3C(F)(F)F)nc3ccccc23)CC1 -6.56%
COc1ccccc1-c1nccc(NCc2ccccc2)n1 -0.806%
